Source: ChEMBL document CHEMBL5308541, “MAIP: An Open-Source Tool to Enrich High-Throughput Screening Output and Identify Novel, Druglike Molecules with Antimalarial Activity” (ACS Med Chem Lett, 2023)
The campaign covered roughly 150,000 compounds. About 540 (0.36%) showed an effect of 50% or more. The list shows a part of the results.

Tested on: Plasmodium falciparum
Experiment: Primary screen in NF54 nanoGlo assay, in single point, at 2uM, 72h; a lower Z score goes with more inhibition
Assay type: functional, Erythrocyte
Conditions: timepoint 72 hour

SMILES | % Inhibition [%] | Z score
Cc1nc(OCC(=O)NCCNc2cc(-n3cnc(C)c3C)ncn2)cc(-n2cccn2)n1 | -5 | 0.81
CCc1c[nH]c2ncnc(NCc3ccnc(NC)c3)c12 | 2 | -0.36
CC1(C)CNC(=O)C2(CCN(c3ccnc4c(C(F)(F)F)cccc34)CC2)NC1 | -1 | 0.14
CCCN(CCC)C(=O)c1ccc(-c2cnc(NC3CCCCC3)nc2)cc1 | -2 | 0.36
Cn1ccc(N2CC[C@H](NCc3cc4ccccc4nc3O)C2)n1 | -6 | 0.9
CCCCN1CCC(NC(=O)c2c[nH]c3ncccc23)CC1 | -8 | 1.66
Cc1ccc(-n2cccn2)c(CN(Cc2cccnc2)CC2CCN(C3CCCC3)CC2)c1 | -8 | 1.33
CN(C[C@@H]1C[C@H](F)CN1c1ccncn1)c1ccnc2ccncc12 | -4 | 0.56
O=C(c1ccnc2cc(Cl)ccc12)N1CCOC[C@H]1C1CCC1 | -6 | 0.97
Nc1ncc(C(=O)N2CCC(CNC(=O)c3cc4cc(F)ccc4[nH]3)CC2)s1 | -5 | 0.82
CCOCC1CCN(C(=O)Cc2ccn(-c3ccc(F)cc3)n2)CC1 | -13 | 2.82
CC1CCCN(c2cc(NC3CCCC3O)ncn2)C1 (stereo unspecified) | 5 | -1.09
CC(C)(C)OC(=O)NCc1cn([C@H]2CCCN(c3ncnc4[nH]ccc34)C2)nn1 | -11 | 2.21
CCc1nc(NCCN2CCN(Cc3ccccc3)CC2)ncc1C | -2 | 0.49
CCN1CCN(CCCNC(=O)c2cc3c(C)cc(F)cc3[nH]2)CC1 | -4 | 0.61
CN1CCC[C@H]1C(=O)NCC1CCN(Cc2ccccc2-c2ccccc2)CC1 | 4 | -0.7
Cc1cnc(NCc2ccccc2N2CCO[C@@H](C)C2)s1 | 4 | -0.74
O=C(NCCN1CCCOC1=O)c1ccc(-c2cnn3ccccc23)cc1 | 4 | -0.66
Cc1ccccc1-c1cccc(NC(=O)NCC[C@H](C)N2CCN(C)CC2)c1 | -16 | 2.7
C=C(C)CN=C(NC1CCCN(C2CCCCC2)C1)C(C#N)C(=O)Nc1ccnn1C (stereo unspecified) | 1 | -0.19
c1ccc(CNc2ccc(-c3noc(C45CCCN(CCC4)C5)n3)cn2)cc1 | 81 | -17.51
CN(CC1(N2CCCCC2)CCCCC1)c1nc(N)c2cnn(C)c2n1 | 0 | -0.06
Clc1cc(Cl)cc(CNCCCNc2ncccn2)c1 | -12 | 1.79
N#Cc1ccccc1N1CCC(Nc2nccc(Oc3ccc(F)cc3)n2)CC1 | -32 | 5.65
O=C1CCNC(=O)c2cc(OCC3CC3)cc(c2)Oc2cccc(c2)COC2CCNCC2N1 (stereo unspecified) | -8 | 1.64
Cc1nc(N2CCOCC2)ccc1NCc1ccc(C2CC2C)o1 (stereo unspecified) | -7 | 1.05
Cc1cccc(N2CCC(N3CCC(c4ccnc(N)n4)CC3)CC2)c1C | 4 | -0.55

SMILES | % Inhibition [%] | Z score
Cc1cc(C(=O)N[C@@H](C)c2ccc(Cl)cn2)nc2ccccc12 | -6 | 1.21
CN1CCCN(CC(=O)NC2CCN(Cc3cccnc3)CC2O)CC1 (stereo unspecified) | -12 | 2.39
CN1CCC[C@@H]1CCn1ccc(-c2cccc(-c3cnn(C)c3)c2)n1 | -3 | 0.46
Cc1nc(NC[C@@H](C(C)C)N2CCN(C)CC2)c2c(-c3ccccc3)csc2n1 | 8 | -1.2
CC1CN(c2ccccc2NC(=O)c2cnc(-c3ccncc3)s2)CC(C)O1 (stereo unspecified) | -10 | 1.58
O[C@H]1CCCN(c2ccnc(NCCc3n[nH]c(-c4ccncc4)n3)n2)C1 | -21 | 3.12
Cc1ccc(F)cc1S(=O)(=O)N1CCN(c2nc(N3CCOCC3)nc(-n3ccnc3)n2)CC1 | -7 | 1
CN(C)c1ccc(NC2CCCCC2)nc1 | -5 | 1.17
Cc1ccc(OCc2cc(C(=O)N(C)Cc3nc4ccccc4[nH]3)no2)cn1 | -1 | 0.21
CC(C)Nc1cccc(CNS(=O)(=O)CCOC(C)C)c1 | -1 | 0.18
COc1cc(N2CCN(Cc3ccc(Oc4cnccn4)cc3)CC2)ncn1 | -5 | 0.73
OC(CNC1CCN(C2CCOC2)CC1)c1ccc(-c2ccccc2)cc1 (stereo unspecified) | 15 | -2.93
CN1C[C@@H](CNc2cc(C(F)(F)F)nc(N(C)C)n2)CC1=O | -3 | 0.45
CN(Cc1ccccc1O)C(=O)c1cccnc1Nc1cccc(F)c1 | -2 | 0.29
COc1ccc(-c2cc(CN(C)C(=O)c3ccccc3-c3ncc(-c4ccccc4)o3)on2)cc1 | -15 | 2.6
CS(=O)(=O)c1ccc2ncnc(NC3CCN(c4nccs4)CC3)c2c1 | -14 | 2.11
CC(C)Cc1nc2cc(NC(=O)[C@H](Cc3cn(C)c4ccccc34)NC(=O)OC(C)(C)C)ccc2[nH]1 | -14 | 2.47
Cc1cc(C[C@H](C)NC(=O)Nc2cccc(N(C)C)c2C)n[nH]1 | -3 | 0.6
CN1CCC(Oc2ccc(NCc3ccc(N(C)C)nc3)cn2)CC1 | -17 | 3.56
Cc1ccc(CN[C@H]2CCN(c3ccn(C)n3)C2)c(-c2ccnn2C)c1 | 4 | -0.53
COc1ccc(-c2ccnc(N[C@H]3CCC(=O)N(C)C3)n2)cc1 | -3 | 0.69
CC(C)(C)c1ccc2oc(CNS(=O)(=O)C3CC3)nc2c1 | -3 | 0.52
COc1ccc(CN(C)c2ncc(F)cn2)cc1O | -3 | 0.57
CCN1CCC[C@@H]1CN(C/C=C/c1ccccc1OC)CC1CCN(CCOC)CC1 | 18 | -3.18
CCn1cc(-c2cc(C(F)(F)F)nc(N3CCNCC3)n2)c(C)n1 | 7 | -1.42
Cc1ccc(C)c(Nc2nc(N[C@H]3CCS(=O)(=O)C3)nc3nccnc23)c1 | -2 | 0.26
